Laboratory results published in paper PMC7409549, “A time-resolved interaction analysis of Bem1 reconstructs the flow of Cdc42 during polar growth” (Life Science Alliance, 2020).
Positions count from the first letter of the chain named. These are yes or no findings as the source states them, for the method shown. Binding seen in cells or lysates may run through a third protein. Some entries that bind do so weakly or less than the wild type. For some of these results: Tags and fused reporters may be left off the sequences shown.

Amino acid sequences for entries named in this document (tags omitted).
UniProt P38631: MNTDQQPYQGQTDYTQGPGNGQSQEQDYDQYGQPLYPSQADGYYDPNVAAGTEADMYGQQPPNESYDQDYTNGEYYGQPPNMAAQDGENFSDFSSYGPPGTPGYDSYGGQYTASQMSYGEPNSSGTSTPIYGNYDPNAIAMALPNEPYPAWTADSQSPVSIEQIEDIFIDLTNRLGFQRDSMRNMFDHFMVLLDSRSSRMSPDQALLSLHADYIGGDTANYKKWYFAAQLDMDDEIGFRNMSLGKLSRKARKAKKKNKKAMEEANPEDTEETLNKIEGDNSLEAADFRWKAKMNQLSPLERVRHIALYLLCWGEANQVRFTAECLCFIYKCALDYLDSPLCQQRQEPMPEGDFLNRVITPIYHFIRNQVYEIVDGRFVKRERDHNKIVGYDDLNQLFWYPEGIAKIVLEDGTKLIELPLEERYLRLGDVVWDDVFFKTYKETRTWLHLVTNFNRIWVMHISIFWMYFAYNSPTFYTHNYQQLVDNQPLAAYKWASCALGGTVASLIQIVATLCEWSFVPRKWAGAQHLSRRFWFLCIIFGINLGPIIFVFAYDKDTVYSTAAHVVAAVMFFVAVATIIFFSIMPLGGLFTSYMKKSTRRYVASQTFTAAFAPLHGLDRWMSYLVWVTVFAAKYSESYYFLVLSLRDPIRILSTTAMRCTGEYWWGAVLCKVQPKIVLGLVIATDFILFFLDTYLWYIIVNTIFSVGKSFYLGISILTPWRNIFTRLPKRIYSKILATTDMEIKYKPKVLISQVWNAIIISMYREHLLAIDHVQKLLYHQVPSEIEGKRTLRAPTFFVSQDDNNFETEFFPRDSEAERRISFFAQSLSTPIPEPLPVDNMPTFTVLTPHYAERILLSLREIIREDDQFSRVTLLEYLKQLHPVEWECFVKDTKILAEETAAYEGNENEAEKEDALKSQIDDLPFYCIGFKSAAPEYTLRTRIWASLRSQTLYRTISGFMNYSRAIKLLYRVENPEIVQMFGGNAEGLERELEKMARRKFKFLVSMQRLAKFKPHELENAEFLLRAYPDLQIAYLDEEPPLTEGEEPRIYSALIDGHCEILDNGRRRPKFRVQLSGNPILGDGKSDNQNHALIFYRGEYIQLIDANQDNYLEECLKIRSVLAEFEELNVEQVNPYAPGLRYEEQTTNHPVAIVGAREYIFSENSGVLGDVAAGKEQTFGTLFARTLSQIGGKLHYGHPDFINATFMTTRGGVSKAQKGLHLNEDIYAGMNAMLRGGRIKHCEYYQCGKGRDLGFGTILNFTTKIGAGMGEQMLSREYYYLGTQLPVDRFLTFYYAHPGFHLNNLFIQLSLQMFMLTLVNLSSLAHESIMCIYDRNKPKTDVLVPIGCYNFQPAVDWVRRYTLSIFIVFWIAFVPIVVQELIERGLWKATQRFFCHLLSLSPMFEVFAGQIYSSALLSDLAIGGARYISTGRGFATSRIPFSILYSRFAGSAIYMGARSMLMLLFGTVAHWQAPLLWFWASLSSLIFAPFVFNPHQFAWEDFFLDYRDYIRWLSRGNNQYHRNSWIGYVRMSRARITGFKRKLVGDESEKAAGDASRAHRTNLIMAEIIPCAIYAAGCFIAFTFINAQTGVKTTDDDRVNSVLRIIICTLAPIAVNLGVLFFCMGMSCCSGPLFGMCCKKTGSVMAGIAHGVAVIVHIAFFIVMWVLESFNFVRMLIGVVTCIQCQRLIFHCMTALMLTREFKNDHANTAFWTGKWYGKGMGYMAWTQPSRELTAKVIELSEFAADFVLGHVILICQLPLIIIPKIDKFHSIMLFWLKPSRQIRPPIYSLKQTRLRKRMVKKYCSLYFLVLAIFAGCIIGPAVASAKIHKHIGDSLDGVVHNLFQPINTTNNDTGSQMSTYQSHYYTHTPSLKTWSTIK
UniProt P23201: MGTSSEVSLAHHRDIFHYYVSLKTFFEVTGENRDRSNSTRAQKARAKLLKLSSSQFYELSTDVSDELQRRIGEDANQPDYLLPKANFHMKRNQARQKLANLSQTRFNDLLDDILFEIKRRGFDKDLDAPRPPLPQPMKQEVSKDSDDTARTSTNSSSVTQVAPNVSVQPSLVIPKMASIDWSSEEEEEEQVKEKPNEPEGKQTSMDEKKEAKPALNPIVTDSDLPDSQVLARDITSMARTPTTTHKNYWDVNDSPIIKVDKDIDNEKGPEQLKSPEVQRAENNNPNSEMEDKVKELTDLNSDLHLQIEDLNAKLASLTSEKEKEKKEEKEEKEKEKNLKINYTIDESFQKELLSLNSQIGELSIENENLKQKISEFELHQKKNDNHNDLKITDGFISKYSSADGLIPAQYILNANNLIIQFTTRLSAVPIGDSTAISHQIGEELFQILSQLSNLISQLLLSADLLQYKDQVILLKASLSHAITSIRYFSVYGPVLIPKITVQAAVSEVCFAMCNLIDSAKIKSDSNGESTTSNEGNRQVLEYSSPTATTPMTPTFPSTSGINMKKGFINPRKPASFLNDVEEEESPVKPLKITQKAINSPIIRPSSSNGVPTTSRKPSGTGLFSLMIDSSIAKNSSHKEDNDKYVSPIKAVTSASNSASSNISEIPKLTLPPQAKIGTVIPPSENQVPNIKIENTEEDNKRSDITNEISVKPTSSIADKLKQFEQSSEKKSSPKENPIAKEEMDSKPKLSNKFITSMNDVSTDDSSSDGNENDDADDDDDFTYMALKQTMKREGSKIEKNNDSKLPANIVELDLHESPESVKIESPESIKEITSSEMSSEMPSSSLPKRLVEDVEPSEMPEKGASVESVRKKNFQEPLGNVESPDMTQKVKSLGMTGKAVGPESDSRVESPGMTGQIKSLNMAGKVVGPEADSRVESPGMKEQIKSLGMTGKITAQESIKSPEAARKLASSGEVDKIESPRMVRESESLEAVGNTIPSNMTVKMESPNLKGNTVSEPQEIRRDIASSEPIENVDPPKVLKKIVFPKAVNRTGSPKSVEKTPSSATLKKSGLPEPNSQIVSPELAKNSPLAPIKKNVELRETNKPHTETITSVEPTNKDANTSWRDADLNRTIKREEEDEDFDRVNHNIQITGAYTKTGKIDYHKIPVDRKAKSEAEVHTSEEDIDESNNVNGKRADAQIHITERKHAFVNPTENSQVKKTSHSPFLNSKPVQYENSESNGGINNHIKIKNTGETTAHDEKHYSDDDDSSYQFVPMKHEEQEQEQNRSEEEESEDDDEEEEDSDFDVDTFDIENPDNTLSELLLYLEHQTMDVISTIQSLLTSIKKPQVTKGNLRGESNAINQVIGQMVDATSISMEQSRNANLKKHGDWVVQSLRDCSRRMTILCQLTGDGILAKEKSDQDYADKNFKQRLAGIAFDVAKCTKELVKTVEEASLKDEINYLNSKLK

B1: Nub-Rga2 (protein, UniProt Q06407 1-1009)
chain: MSADPINDQSSLCVRCNKSIASSQVYELESKKWHDQCFTCYKCDKKLNADSDFLVLDIGTLICYDCSDKCTNCGDKIDDTAIILPSSNEAYCSNCFRCCRCSNRIKNLKYAKTKRGLCCMDCHEKLLRKKQLLLENQTKNSSKEDFPIKLPERSVKRPLSPTRINGKSDVSTNNTAISKNLVSSNEDQQLTPQVLVSQERDESSLNDNNDNDNSKDREETSSHARTVSIDDILNSTLEHDSNSIEEQSLVDNEDYINKMGEDVTYRLLKPQRANRDSIVVKDPRIPNSNSNANRFFSIYDKEETDKDDTDNKENEIIVNTPRNSTDKITSPLNSPMAVQMNEEVEPPHGLALTLSEATKENNKSSQGIQTSTSKSMNHVSPITRTDTVEMKTSTSSSTLRLSDNGSFSRPQTADNLLPHKKVAPSPNKKLSRSFSLKSKNFVHNLKSKTSEMLDPKHPHHSTSIQESDTHSGWGVSSTHTNIRKSKAKKNPVSRGQSDSTIYNTLPQHGNFTVPEFNHKKAQSSLGSISKKQNSNDTATNRRINGSFTSSSSGHHIAMFRTPPLESGPLFKRPSLSSESAHHRSSSLQTSRSTNALLEDDSTKVDATDESATSLEKDFYFTELTLRKLKLDVRELEGTKKKLLQDVENLRLAKERLLNDVDNLTREKDKQSASSRESLEQKENIATSITVKSPSSNSDRKGSISNASPKPRFWKIFSSAKDHQVGDLESQQRSPNSSSGGTTNIAQKEISSPKLIRVHDELPSPGKVPLSPSPKRLDYTPDGSHLYGSSLQARCAYEKSTVPIIIRCCIDRIEKDDIGLNMEGLYRKSGSQTLVEEIENEFAQNNSLHSDTLSPKLNALLNQDIHAVASVLKRYLRKLPDPVLSFSIYDALIDLVRNNQLIERLPLNNDKFLDSPQKVTIYEMVLKSLLEIFKILPVEHQEVLKVLAAHIGKVRRCSERNLMNLHNLSLVFAPSLIHDFDGEKDIVDMKERNYIVEFILGNYRDIFKQA
B2: Nub-Msb1 (protein, UniProt P21339 1-1137)
chain: MNDMAKPLPTPPTAEIRKSRSNSPKKAQKTNLSPNKNQNNEKNVPRSNGRTKNEHNSMDDEEFEFFHQFSREKVKGVIHVITAELKEKGPDVEFLMIPFRPEQTNDKLLTLLNQLFPLGNGQPVNEKKQLRIVSKADVWTLFQCLKYIWCRLPNSEIIGWKSYLEFKFREEDKKFPRKSFLEIMPQCLASPNHASIVYDFFDLIISISSNSRVNKMSARKISKMCAIWAFSKQIPNSDIQDYDFESAAMKSFAPNNSIQDGLDQWIPASDAMFHLLLAFLRSFVPQDLESAKLPRTLKSLLFNNQYPPRKSTAYTSETILTIPLVTLKTDVFSRKPWQLLERCNDLLDFSDHDAFEAREDYALLKSLFRKKNTVEGISRKMSQESRRLMKAMSTKHSTFQPGWAPRECIENISHLKECIEVKRLDIDDYFIWTWLSSLSFEQTSEKKKIFGRSIILEFEFDGFKKWVVFQECDITLDYNKKGQLKKKTSAQSPTTEKELPPDDFELEDPPLSKSPTLSQTYKKFQAEVPQQSTVRRDSAPDNQGIYHTVISKNALTKNKHNVNLHSFEHKISKWNPLNNLRKKSGSNSSSSSFEEKSKDAPIREEYHTNKNHKSKKEERVLSQFSTLNPDEYQLPVIETGSSNFKIEIPELMYEHDDDDSDKLKNSQKRATDSAIEELNGMVEEMMINEPDDVKISITEAETFESLTKFDQYKPSNITDDDLQSSHSSAVHSLKLSTNTNDSCADSSKYTADRKLAEPRKISEESKVNDDSSSYYSPNINNLPASRMPSQPTYSNSDSKKAFTNESRLNVLQGAVSPSQQVTPKPYKNAPGDCVSPVQQKYYQNDRRNEMSPASAPVPPSAYSPARSPQFSTNSAGFKQNTINVPVGYNDPAHVLANQPHMTYRDQHNYPSHQQKQRPFQNNIVPPELKSRNQRADASPIPQHMVPVKQGVPNLPSNVPLYQQMERMNPNHQHPVNTYKVTQPPYHNNTTNAYGNSRAGNAHMLDGKWSNNPPQMVPKGVRPNQYPQQHVNRYSPQAQPVVPAEYYNGPPPMRAPPMMSHMVPAQEPIRYTAGANRRSFPQGMQQNAYSVPAQPMGAVNSEFYLPEAPQGNKLHGNINKRQERKKLYDNIRSGNFGI
B3: Nub-Ras2 (protein, UniProt P01120 1-322)
chain: MPLNKSNIREYKLVVVGGGGVGKSALTIQLTQSHFVDEYDPTIEDSYRKQVVIDDEVSILDILDTAGQEEYSAMREQYMRNGEGFLLVYSITSKSSLDELMTYYQQILRVKDTDYVPIVVVGNKSDLENEKQVSYQDGLNMAKQMNAPFLETSAKQAINVEEAFYTLARLVRDEGGKYNKTLTENDNSKQTSQDTKGSGANSVPRNSGGHRKMSNAANGKNVNSSTTVVNARNASIESKTGLAGNQATNGKTQTDRTNIDNSTGQAGQANAQSANTVNNRVNNNSKAGQVSNAKQARKQQAAPGGNTSEASKSGSGGCCIIS
B4: Nub-Bud6 (protein, UniProt P41697 1-788)
chain: MKMAVDDPTYGTPKIKRTASSSSSIETTVTKLLMSTKHLLQVLTQWSKGTTSGRLVSDAYVQLGNDFKVVSKFFMHAKVDMSDVGDVPMALRRVLEVTLREPPSDETLNKHLPKIREIIVTLLDKLKVKQAILKNMQQEHRISVKSHHQQNPSFTSNLSLGSEGTREGTPLSSRKSSIVRDQRQSDSVENSYGEKVNSTSTGTPSAQSAEATLTKPRTNIKQNLKSNNAPNASDDDDALSQLKKGTNLQRRASKRYSAYHMAKLTNQSTTEAAAAAGLMTTPSPSMLHLEETVRKSKLYGNNNNDDDRNINSAENKGKSIDDVSKASPLAKTPLPIENVRASPRRLSSVVTTSPDKAMNGTCPVFLRIGDKTKKCHVQLPTTKNALRLLFIERFAYSPGANSFPDIYIMDPQYGVFYELEELNLLDIKEGFVIELKLEENPNNTIKEFIDTVKMEISNSQNDIIRHLKEMSFGSAISGKQTEVLPQPGLEANKHDLVGQNKKDDDKTIKDIQYELGKIKQVHNINRSNINETIFNILRKVDNFKSLSFSAKNSSNRMYMEKSQTELGDLSDTLLSKVDDLQDVIEIMRKDVAERRSQPAKKKLETVSKDLENAQADVLKLQEFIDTEKPHWKKTWEAELDKVCEEQQFLTLQEELILDLKEDLGKALETFDLIKLCCEEQEKNPSRSKSNPILPIMRPGTFNQVREQVMVAVQSLNPDHDSRVEAIDKAEKMWEMERKLKASNEFDDELENFVGNSNLKKSGGFEEVERIRKQKDEANLRAYFGPGFT
B5: Nub-Bem1 (protein, UniProt P29366 1-551)
chain: MLKNFKLSKRDSNGSKGRITSADISTPSHDNGSVIKHIKTVPVRYLSSSSTPVKSQRDSSPKNRHNSKDITSPEKVIKAKYSYQAQTSKELSFMEGEFFYVSGDEKDWYKASNPSTGKEGVVPKTYFEVFDRTKPSSVNGSNSSSRKVTNDSLNMGSLYAIVLYDFKAEKADELTTYVGENLFICAHHNCEWFIAKPIGRLGGPGLVPVGFVSIIDIATGYATGNDVIEDIKSVNLPTVQEWKSNIARYKASNISLGSVEQQQQQSITKPQNKSAKLVDGELLVKASVESFGLEDEKYWFLVCCELSNGKTRQLKRYYQDFYDLQVQLLDAFPAEAGKLRDAGGQWSKRIMPYIPGPVPYVTNSITKKRKEDLNIYVADLVNLPDYISRSEMVHSLFVVLNNGFDREFERDENQNNIKTLQENDTATFATASQTSNFASTNQDNTLTGEDLKLNKKLSDLSLSGSKQAPAQSTSGLKTTKIKFYYKDDIFALMLKGDTTYKELRSKIAPRIDTDNFKLQTKLFDGSGEEIKTDSQVSNIIQAKLKISVHDI

What was measured:
[1] = molecular target: T1, Bem1-Cub-RUra3 (S. cerevisiae) (UniProt P29366); test: split reporter; split-ubiquitin (Split-Ub): a-cells with a Cub-RUra3 (CRU) fusion mated with α-cells with Nub fusions (P_CUP1), diploids as quadruplets on SD medium with 1 mg/ml 5-FOA and copper; growth = interaction; detects direct and indirect interactions
T1 sequence: B5 chain

[2] = molecular target: T2, Bem1WK-Cub-RUra3 (S. cerevisiae) (UniProt P29366); test: as above
T2 sequence: B5 chain with W192K

[3] = molecular target: T3, Bem1-mCherry-Cub-RGFP (S. cerevisiae) (UniProt P29366); test: split reporter; SPLIFF as a9, measured at the bud neck from completion of acto-myosin ring contraction until abscission (PCDIII)
T3 sequence: B5 chain

[4] = molecular target: T3, Bem1-mCherry-Cub-RGFP (S. cerevisiae); test: split reporter; SPLIFF as a9, measured at the cell front during bud site assembly and bud growth (PCDII)

Molecule | binding [1] | binding [2] | binding [3] | binding [4]
Nub-Fks1 (from UniProt P38631 1-1876) | binds | binds | – | –
Nub-Spa2 (from UniProt P23201 1-1466) | binds | binds | – | –
B1 | binds | binds | no binding (condition: during PCDIII (abscission)) | binds
B2 | – | binds | – | –
B3 | binds | binds | – | –
B4 | – | no binding | – | –
B5 | – | no binding | – | –
